# Experimental data taken from PubChem BioAssay (NCATS).
# Values joined by “and” are separate entries in the source; they are usually repeats but may differ in a detail not shown here. Equal values may be shown once. Inconclusive results, whose numbers are uncertain, are shown with a selection of clear calls. Potencies of inconclusive entries are doubtful fits and often do not repeat. Active and inactive are the calls of the source. Calls come from the whole dose curve; as a rule, active = well fitted curve in the direction sought with a large enough effect; inconclusive = small, poorly fitted or top-dose-only effect, or another doubt; inactive = no such curve, though single readings can be large; an effect the other way counts as inactive or inconclusive.
# Experiments:
# [1] = P-glycoprotein substrates identified in KB-8-5-11 adenocarcinoma cell line, qHTS therapeutic library screen (AID 1346987); note: nearly all actives have a fitted effect of over 65% in size
# How it was run: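 Compounds are pinned in dose-response onto KB-8-5-11 cells (500 cells/well, colchicine-free medium) and left 72 h at 37 degree C. CellTiter-Glo luminescence then yields AC50 values.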
# [2] = system: Zika virus NS2B-NS3 protease (unlinked complex); experiment: Primary screen GU Rhodamine qHTS for Zika virus inhibitors: Unlinked NS2B-NS3 protease assay (AID 1347159); note: nearly all actives have a fitted effect of over 60% in size
# How it was run: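 Enzyme 25 nM in Tris-HCl pH 8.0 + 0.01% Tween 20; compounds up to 114 microM, 15 min RT dark; + Rhod110 substrate 1.5 microM; read t0 and 15 min; delta fluorescence → % inhibition → 4-parameter Hill fit.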
# [3] = Primary qHTS for inhibitors of nuclear receptor binding SET domain protein 2 (NSD2) in an RCH-ACV wild type WT cells (2C) (AID 1645877); conditions: activity change, negative = cell killing: at 44.9 µM (top of the series); note: nearly all actives have a fitted effect of over 70% in size
# HEK293 = experiment: Cytotoxic Profiling of Annotated Libraries Using Quantitative High-Throughput Screening (AID 1296008); conditions: Five cell lines viability, CellTiter-Glo ATP luminescence, 48-72 h; max response: stronger effect = lower value; note: nearly all actives have a fitted effect of over 60% in size; for max response: % is set by controls: 0 for no effect and ±100 for the full control effect
# How it was run: (§1)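 Compounds were pin-transferred onto cells and incubated 48 or 72 hr at 37 degree Celsius, 95% humidity. CellTiter-Glo was added, plates sat 10 min at room temperature, then ATP-coupled luminescence was imaged as the viability read-out.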
# HaCat = experiment: as above; conditions: Five cell lines viability, CellTiter-Glo ATP luminescence, 48-72 h; max response: stronger effect = lower value
# How it was run: as §1
# KB-3-1 = experiment: as above; conditions: Five cell lines viability, CellTiter-Glo ATP luminescence, 48-72 h; max response: stronger effect = lower value
# How it was run: as §1
# C33A = experiment: Primary qHTS to identify gynecologic anti-cancer compounds using libraries of approved drugs and bioactive compounds (AID 1345084); conditions: Gynecologic cancer cell panel viability, ATPlite luminescence, 48 h; series mostly up to 57.5 µM; note: nearly all actives have a fitted effect of over 55% in size; for activity change, negative = cytotoxicity: % is set by controls: 0 for no effect and ±100 for the full control effect
# How it was run: (§2)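 ATP-based viability (ATPlite), 1,000 cells/well, 16 h pre-incubation, 48 h compound at 37 C, 5% CO2, 15 min RT before read.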
# CAOV3 = experiment: as above; conditions: Gynecologic cancer cell panel viability, ATPlite luminescence, 48 h; series mostly up to 57.5 µM
# How it was run: as §2
# CASKI = experiment: as above; conditions: Gynecologic cancer cell panel viability, ATPlite luminescence, 48 h; activity change, negative = cytotoxicity: at 57.5 µM (top of the series)
# How it was run: as §2
# HeLa = experiment: as above; conditions: Gynecologic cancer cell panel viability, ATPlite luminescence, 48 h; series mostly up to 57.5 µM
# How it was run: as §2
# SKOV3 = experiment: as above; conditions: Gynecologic cancer cell panel viability, ATPlite luminescence, 48 h; series mostly up to 57.5 µM
# How it was run: as §2
# Tov-21-G = experiment: as above; conditions: Gynecologic cancer cell panel viability, ATPlite luminescence, 48 h; activity change, negative = cytotoxicity: at 57.5 µM (top of the series)
# How it was run: as §2
# Tov112D = experiment: as above; conditions: Gynecologic cancer cell panel viability, ATPlite luminescence, 48 h; activity change, negative = cytotoxicity: at 57.5 µM (top of the series)
# How it was run: as §2
# [4] = Primary qHTS for inhibitors of nuclear receptor binding SET domain protein 2 (NSD2) in an isogenic RCH-ACV NSD2 p.E1099K mutant (9B) (AID 1645876); note: nearly all actives have a fitted effect of over 70% in size
# Es-2 = experiment: Primary qHTS to identify gynecologic anti-cancer compounds using libraries of approved drugs and bioactive compounds (AID 1345084); conditions: Gynecologic cancer cell panel viability, ATPlite luminescence, 48 h; series mostly up to 57.5 µM; note: nearly all actives have a fitted effect of over 55% in size; for activity change, negative = cytotoxicity: % is set by controls: 0 for no effect and ±100 for the full control effect
# How it was run: as §2
# Hek293T = experiment: as above; conditions: Gynecologic cancer cell panel viability, ATPlite luminescence, 48 h, control line for the selectivity index; series mostly up to 57.5 µM
# How it was run: as §2
# JEG-3 = experiment: as above; conditions: Gynecologic cancer cell panel viability, ATPlite luminescence, 48 h; series mostly up to 57.5 µM
# How it was run: as §2
# PA-1 = experiment: as above; conditions: Gynecologic cancer cell panel viability, ATPlite luminescence, 48 h; series mostly up to 57.5 µM
# How it was run: as §2
# OV90 = experiment: as above; conditions: Gynecologic cancer cell panel viability, ATPlite luminescence, 48 h; series mostly up to 57.5 µM
# How it was run: as §2
# Potency is the fitted concentration of half-maximal effect; tags give direction and shape of the fitted curve.
smiles,measurement,setting,value
C[C@@H](Nc1ncnc2[nH]c(-c3ccc(O)cc3)cc12)c1ccccc1,Potency,[1],active: 8.2 µM
same,Potency,[2],"inconclusive: 56.2 µM [inhibitor, partial curve]"
same,Potency,[3],active: 5.78 µM and active: 10.5 µM
same,Potency,HEK293,"inconclusive: 20.6 µM [inhibitor, single point]"
same,Potency,HaCat,active: 820 nM
same,Potency,KB-3-1,"inconclusive: 29.1 µM [inhibitor, single point]"
same,Potency,C33A,"inconclusive: 17.8 µM [cytotoxic, single point]"
same,Potency,CAOV3,"inconclusive: 7.08 µM [cytotoxic, full curve, poor fit]"
same,Potency,CASKI,active: 22.4 µM
same,Potency,HeLa,"inconclusive: 31.6 µM [cytotoxic, single point]"
same,Potency,SKOV3,"inconclusive: 25.1 µM [cytotoxic, single point]"
same,Potency,Tov-21-G,"inconclusive: 14.1 µM [cytotoxic, partial curve]"
same,Potency,Tov112D,"inconclusive: 31.6 µM [cytotoxic, single point]"
CC(F)(F)CN1CCOc2c(nn(-c3ccccc3Cl)c2-c2ccc(Cl)cc2)C1=O,Potency,[1],"inconclusive: 16.4 µM [inhibitor, single point]"
same,Potency,[2],"inconclusive: 28.2 µM [inhibitor, partial curve, poor fit]"
same,Potency,[4],"inconclusive: 18.3 µM [inhibitor, single point]"
same,Potency,HEK293,"inconclusive: 18.4 µM [inhibitor, single point]"
same,max response,HaCat,inactive: -16.2%
same,Potency,KB-3-1,"inconclusive: 29.1 µM [inhibitor, single point]"
same,Potency,CASKI,"inconclusive: 1.41 µM [cytotoxic, single point]"
C[C@H]1[C@H](/C=C/c2ccc(-c3ccccc3C#N)cn2)[C@@H]2[C@@H](C)OC(=O)[C@@H]2C[C@@H]1C,Potency,[1],active: 16.4 µM
same,Potency,HEK293,active: 13 µM
same,Potency,HaCat,"inconclusive: 29100 nM [inhibitor, single point]"
same,Potency,KB-3-1,"inconclusive: 18.4 µM [inhibitor, single point]"
same,Potency,C33A,"inconclusive: 15.8 µM [cytotoxic, partial curve]"
same,Potency,CASKI,"inconclusive: 14.1 µM [cytotoxic, partial curve]"
same,Potency,Es-2,"inconclusive: 39.8 µM [cytotoxic, single point]"
same,Potency,HeLa,"inconclusive: 39.8 µM [cytotoxic, single point]"
same,Potency,Hek293T,"inconclusive: 22.4 µM [cytotoxic, single point]"
same,Potency,JEG-3,"inconclusive: 22.4 µM [cytotoxic, partial curve, poor fit]"
same,Potency,PA-1,"inconclusive: 35.5 µM [cytotoxic, single point]"
same,Potency,SKOV3,"inconclusive: 31.6 µM [cytotoxic, single point]"
same,Potency,Tov-21-G,"inconclusive: 20 µM [cytotoxic, partial curve]"
CNC(=O)c1ccc(Nc2ncc(C(F)(F)F)c(NCc3nccnc3N(C)S(C)(=O)=O)n2)cc1,Potency,[1],"inconclusive: 18.4 µM [inhibitor, single point]"
same,Potency,HEK293,active: 5.17 µM
same,Potency,HaCat,active: 7.31 µM and active: 2.95 µM
same,Potency,KB-3-1,active: 11.6 µM
same,Potency,C33A,"inconclusive: 14.1 µM [cytotoxic, partial curve]"
same,Potency,CAOV3,"inconclusive: 28.2 µM [cytotoxic, single point]"
same,Potency,CASKI,"inconclusive: 25.1 µM [cytotoxic, single point]"
same,Potency,Hek293T,active: 8.91 µM
same,Potency,JEG-3,"inconclusive: 20 µM [cytotoxic, single point]"
same,Potency,OV90,"inconclusive: 8.91 µM [cytotoxic, partial curve]"
same,Potency,PA-1,active: 4.47 µM
same,Potency,SKOV3,"inconclusive: 3.55 µM [cytotoxic, full curve, poor fit]"
same,Potency,Tov-21-G,"inconclusive: 2.51 µM [cytotoxic, full curve, poor fit]"
CCc1cccc(CC)c1-n1c(C=C(C)C)c(C(=O)N2CCNCC2)cc(-c2nc(-c3ccc(C(F)(F)F)cc3)cs2)c1=O,Potency,[1],"inconclusive: 14.2 µM [inhibitor, single point]"
same,Potency,HEK293,"inconclusive: 15.9 µM [inhibitor, single point]"
same,max response,HaCat,inactive: -5.33%
same,Potency,KB-3-1,"inconclusive: 8.93 µM [inhibitor, single point]"
same,Potency,C33A,inactive
same,Potency,OV90,"inconclusive: 12.6 µM [cytotoxic, partial curve, poor fit]"
same,Potency,SKOV3,"inconclusive: 17.8 µM [rising, single point]"
same,Potency,Tov-21-G,inactive
CNC(=O)[C@@H](c1ccccc1)N1CCc2cc(OC)c(OC)cc2[C@@H]1CCc1ccc(C(F)(F)F)cc1,Potency,[1],"inconclusive: 20.6 µM [inhibitor, partial curve]"
same,Potency,[2],inactive
same,Potency,[3],active: 16.3 µM
same,Potency,HEK293,active: 16.4 µM
same,Potency,HaCat,"inconclusive: 18400 nM [inhibitor, partial curve]"
same,Potency,KB-3-1,"inconclusive: 29.1 µM [inhibitor, single point]"
same,Potency,CASKI,inactive
same,Potency,HeLa,inactive
same,Potency,SKOV3,inactive
same,Potency,Tov112D,inactive
CC1(C)CCCC2(C)C1C(=O)C=C(C(=O)O)C2(O)C(=O)O (centres undefined),Potency,[3],"inconclusive: 16.3 µM [inhibitor, partial curve, poor fit]"
same,Potency,HEK293,"inconclusive: 16.4 µM [inhibitor, partial curve, poor fit]"
same,Potency,HaCat,"inconclusive: 103 nM [inhibitor, full curve, poor fit]"
same,Potency,KB-3-1,"inconclusive: 29.1 µM [inhibitor, single point]"
same,Potency,Tov112D,inactive
